Where a chain is given by its changes, count along the chain named. The list shows a part of the results.

Sequences and labels used below:
T1: RBFOX1 RRM (Homo sapiens, UniProt Q9NWB1 109-208)
T1 sequence: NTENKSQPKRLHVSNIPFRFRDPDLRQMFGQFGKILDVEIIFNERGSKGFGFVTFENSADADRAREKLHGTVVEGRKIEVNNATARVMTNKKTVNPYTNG

B1: UCACAAU (DNA:RNA)
RNA: GGGAGACCGGAAUUCAGAUUGUCCUCACAAUUUAAAUCCCGUCGUAGCCACCA
DNA 1: CAATCTGAATTCCGGTCTCCC
DNA 2: TGGTGGCTACGACGGGATT
B2: GGGGCGC (DNA:RNA)
RNA: GGGAGACCGGAAUUCAGAUUGUCCGGGGCGCUUAAAUCCCGUCGUAGCCACCA
DNA 1: CAATCTGAATTCCGGTCTCCC
DNA 2: TGGTGGCTACGACGGGATT
B3: GGGUUCA (DNA:RNA)
RNA: B2 RNA with G28U, C29U, G30C, C31A
DNA 1: CAATCTGAATTCCGGTCTCCC
DNA 2: TGGTGGCTACGACGGGATT
B4: GAAUGGG (DNA:RNA)
RNA: B2 RNA with G26A, G27A, G28U, C29G, C31G
DNA 1: CAATCTGAATTCCGGTCTCCC
DNA 2: TGGTGGCTACGACGGGATT
B5: CCUGGCU (DNA:RNA)
RNA: B1 RNA with U25C, A27U, C28G, A29G, A30C
DNA 1: CAATCTGAATTCCGGTCTCCC
DNA 2: TGGTGGCTACGACGGGATT
B6: ACUGUCU (DNA:RNA)
RNA: B1 RNA with U25A, A27U, C28G, A29U, A30C
DNA 1: CAATCTGAATTCCGGTCTCCC
DNA 2: TGGTGGCTACGACGGGATT
B7: GGGAAUG (DNA:RNA)
RNA: B2 RNA with G28A, C29A, G30U, C31G
DNA 1: CAATCTGAATTCCGGTCTCCC
DNA 2: TGGTGGCTACGACGGGATT
B8: GCUGCUG (DNA:RNA)
RNA: B2 RNA with G26C, G27U, G30U, C31G
DNA 1: CAATCTGAATTCCGGTCTCCC
DNA 2: TGGTGGCTACGACGGGATT
B9: UUUAACA (DNA:RNA)
RNA: B1 RNA with C26U, A27U, C28A, A30C, U31A
DNA 1: CAATCTGAATTCCGGTCTCCC
DNA 2: TGGTGGCTACGACGGGATT
B10: AAAAUAA (DNA:RNA)
RNA: B1 RNA with U25A, C26A, C28A, A29U, U31A
DNA 1: CAATCTGAATTCCGGTCTCCC
DNA 2: TGGTGGCTACGACGGGATT
B11: AGUACCG (DNA:RNA)
RNA: B2 RNA with G25A, G27U, G28A, G30C, C31G
DNA 1: CAATCTGAATTCCGGTCTCCC
DNA 2: TGGTGGCTACGACGGGATT
B12: GGACAAU (DNA:RNA)
RNA: B1 RNA with U25G, C26G
DNA 1: CAATCTGAATTCCGGTCTCCC
DNA 2: TGGTGGCTACGACGGGATT
B13: AAUGUCA (DNA:RNA)
RNA: B2 RNA with G25A, G26A, G27U, C29U, G30C, C31A
DNA 1: CAATCTGAATTCCGGTCTCCC
DNA 2: TGGTGGCTACGACGGGATT
B14: CCUAUGU (DNA:RNA)
RNA: B1 RNA with U25C, A27U, C28A, A29U, A30G
DNA 1: CAATCTGAATTCCGGTCTCCC
DNA 2: TGGTGGCTACGACGGGATT
B15: GUCGCGA (DNA:RNA)
RNA: B2 RNA with G26U, G27C, C31A
DNA 1: CAATCTGAATTCCGGTCTCCC
DNA 2: TGGTGGCTACGACGGGATT
B16: UGUUGGA (DNA:RNA)
RNA: B2 RNA with G25U, G27U, G28U, C29G, C31A
DNA 1: CAATCTGAATTCCGGTCTCCC
DNA 2: TGGTGGCTACGACGGGATT
B17: UAUACGU (DNA:RNA)
RNA: B2 RNA with G25U, G26A, G27U, G28A, C31U
DNA 1: CAATCTGAATTCCGGTCTCCC
DNA 2: TGGTGGCTACGACGGGATT
B18: UAAAGCU (DNA:RNA)
RNA: B1 RNA with C26A, C28A, A29G, A30C
DNA 1: CAATCTGAATTCCGGTCTCCC
DNA 2: TGGTGGCTACGACGGGATT
B19: UGAGCGG (DNA:RNA)
RNA: B2 RNA with G25U, G27A, C31G
DNA 1: CAATCTGAATTCCGGTCTCCC
DNA 2: TGGTGGCTACGACGGGATT
B20: AAUUAGU (DNA:RNA)
RNA: B1 RNA with U25A, C26A, A27U, C28U, A30G
DNA 1: CAATCTGAATTCCGGTCTCCC
DNA 2: TGGTGGCTACGACGGGATT
B21: GGGUCGG (DNA:RNA)
RNA: B2 RNA with G28U, C31G
DNA 1: CAATCTGAATTCCGGTCTCCC
DNA 2: TGGTGGCTACGACGGGATT
B22: UAGUAUU (DNA:RNA)
RNA: B1 RNA with C26A, A27G, C28U, A30U
DNA 1: CAATCTGAATTCCGGTCTCCC
DNA 2: TGGTGGCTACGACGGGATT
B23: AGUAUUU (DNA:RNA)
RNA: B2 RNA with G25A, G27U, G28A, C29U, G30U, C31U
DNA 1: CAATCTGAATTCCGGTCTCCC
DNA 2: TGGTGGCTACGACGGGATT
B24: CGCAUAG (DNA:RNA)
RNA: B2 RNA with G25C, G27C, G28A, C29U, G30A, C31G
DNA 1: CAATCTGAATTCCGGTCTCCC
DNA 2: TGGTGGCTACGACGGGATT
B25: CUAUCGU (DNA:RNA)
RNA: B2 RNA with G25C, G26U, G27A, G28U, C31U
DNA 1: CAATCTGAATTCCGGTCTCCC
DNA 2: TGGTGGCTACGACGGGATT
B26: CUUAUUA (DNA:RNA)
RNA: GGGAGACCGGAAUUCAGAUUGUCCCUUAUUAUUAAAUCCCGUCGUAGCCACCA
DNA 1: CAATCTGAATTCCGGTCTCCC
DNA 2: TGGTGGCTACGACGGGATT
B27: AGUAGGC (DNA:RNA)
RNA: B2 RNA with G25A, G27U, G28A, C29G
DNA 1: CAATCTGAATTCCGGTCTCCC
DNA 2: TGGTGGCTACGACGGGATT
B28: ACCAGUG (DNA:RNA)
RNA: B26 RNA with C25A, U26C, U27C, U29G, A31G
DNA 1: CAATCTGAATTCCGGTCTCCC
DNA 2: TGGTGGCTACGACGGGATT
B29: AUACGCA (DNA:RNA)
RNA: B26 RNA with C25A, U27A, A28C, U29G, U30C
DNA 1: CAATCTGAATTCCGGTCTCCC
DNA 2: TGGTGGCTACGACGGGATT
B30: AUCAACA (DNA:RNA)
RNA: B26 RNA with C25A, U27C, U29A, U30C
DNA 1: CAATCTGAATTCCGGTCTCCC
DNA 2: TGGTGGCTACGACGGGATT
B31: AGUGUCC (DNA:RNA)
RNA: B2 RNA with G25A, G27U, C29U, G30C
DNA 1: CAATCTGAATTCCGGTCTCCC
DNA 2: TGGTGGCTACGACGGGATT

For the test, the target named is T1, RBFOX1 RRM. The test can be described thus: EMSA; HiTS-Eq, 1 nM pool, 10 min; buffer printed only for the single-RNA assays: 10 mM Tris pH 7.5, 150 mM NaCl, 3.4 mM EDTA, 0.001% NP-40, 30 C. As to conditions: tags: His6 N-terminal (pET28a); label: 5' 32P. Put shortly: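 These values rest on relative association constants, computed from read-count changes of each RNA species versus the control reaction and normalised to the cognate motif. Reads came from free RNA recovered by 8% native PAGE after purified RbFox RRM (wild type or mutant) at increasing concentrations was equilibrated for 10 min in 50 µL with 1 nM of a 5′-radiolabelled pool with 7 randomized nucleotides and DNA-annealed flanks.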
Regarding B1, the binding signal was 0.000576 KA relative to UGCAUGU.
The result for B2 reads 0.0421 KA relative to UGCAUGU; that for B3, 0.019 KA relative to UGCAUGU.
For B4, the binding signal was 0.0115 KA relative to UGCAUGU.
Take B5: the binding signal is 0.0127 KA relative to UGCAUGU.
The result for B6 reads 0.0115 KA relative to UGCAUGU; that for B7, 0.0951 KA relative to UGCAUGU.
The result for B8 reads 0.0323 KA relative to UGCAUGU; that for B9, 0.00144 KA relative to UGCAUGU.
The result for B10 reads 0.000967 KA relative to UGCAUGU.
For the molecule B11, the binding signal is 0.0106 KA relative to UGCAUGU.
Consider B12, for which the binding signal is 0.0198 KA relative to UGCAUGU.
Consider B13, for which the binding signal is 0.00754 KA relative to UGCAUGU.
In the case of B14 it was 0.00621 KA relative to UGCAUGU; in that of B15, 0.013 KA relative to UGCAUGU.
In the case of B16 it was 0.00477 KA relative to UGCAUGU; in that of B17, 0.00888 KA relative to UGCAUGU; in that of B18, 0.00971 KA relative to UGCAUGU.
As to B19, the binding signal was 0.0123 KA relative to UGCAUGU.
The result for B20 reads 0.00734 KA relative to UGCAUGU; that for B21, 0.0196 KA relative to UGCAUGU; that for B22, 0.00549 KA relative to UGCAUGU.
On to B23, for which the binding signal is 0.00499 KA relative to UGCAUGU.
The result for B24 reads 0.0102 KA relative to UGCAUGU; that for B25, 0.0114 KA relative to UGCAUGU; that for B26, 0.00184 KA relative to UGCAUGU.
Turning to B27, the binding signal is 0.00768 KA relative to UGCAUGU.
With B28, the binding signal is 0.00615 KA relative to UGCAUGU.
In the case of B29, the binding signal was 0.00877 KA relative to UGCAUGU.
The result for B30 reads 0.00141 KA relative to UGCAUGU; that for B31, 0.00976 KA relative to UGCAUGU.

Values taken from article PMC9911399, “Two distinct binding modes provide the RNA-binding protein RbFox with extraordinary sequence specificity”.
